PubChem BioAssay AID588591 (National Center for Advancing Translational Sciences (NCATS), 2011)
Hit rate of the full screen: of about 390,000 compounds, about 4,700 (1.2%) were called active. About 4% were inconclusive and are not listed. Calls follow the shape of the dose curve; as a rule, active = well fitted inhibition curve with a large enough effect; inconclusive = small, poorly fitted or top-dose-only effect, or another doubt; inactive = no such curve, though single readings can be large or run the other way. Only a part is listed here, and it is no random draw.

Molecular target: DNA polymerase eta (Homo sapiens) (UniProt Q9Y253)
Sequence of UniProt Q9Y253 (Q9Y253 whole entry, looked up): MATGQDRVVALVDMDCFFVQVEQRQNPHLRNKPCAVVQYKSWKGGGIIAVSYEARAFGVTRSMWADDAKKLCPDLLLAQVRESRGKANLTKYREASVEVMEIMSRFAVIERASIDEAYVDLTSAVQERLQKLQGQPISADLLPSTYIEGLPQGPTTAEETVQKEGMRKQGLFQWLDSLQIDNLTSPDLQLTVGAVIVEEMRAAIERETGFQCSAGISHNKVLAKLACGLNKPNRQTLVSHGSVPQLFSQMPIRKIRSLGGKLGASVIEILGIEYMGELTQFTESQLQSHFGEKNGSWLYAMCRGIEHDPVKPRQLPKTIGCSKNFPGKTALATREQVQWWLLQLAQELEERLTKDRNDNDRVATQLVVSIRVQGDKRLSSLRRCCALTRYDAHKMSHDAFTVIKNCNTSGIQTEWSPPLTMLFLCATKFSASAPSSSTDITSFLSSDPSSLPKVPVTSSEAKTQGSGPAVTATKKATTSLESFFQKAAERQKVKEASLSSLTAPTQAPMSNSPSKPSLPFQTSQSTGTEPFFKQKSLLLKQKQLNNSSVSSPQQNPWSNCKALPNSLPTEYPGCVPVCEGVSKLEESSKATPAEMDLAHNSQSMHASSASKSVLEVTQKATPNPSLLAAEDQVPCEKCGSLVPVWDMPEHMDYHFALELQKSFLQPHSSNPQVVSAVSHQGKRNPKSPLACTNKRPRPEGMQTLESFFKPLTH
Assay: qHTS for Inhibitors of Polymerase Eta
Conditions: recombinant Pol eta, fluorescent DNA replication assay; series mostly up to 114 µM; activity change, negative = inhibition: at the top concentration
How it was run: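 Pol eta (10 nM) was preincubated with compounds for 15 min at room temperature, after which fluorescent replication substrate (50 nM final) was added to start the reaction. Fluorescence was read kinetically at 0 and 10 min.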
% is scaled to controls: 0 for no effect and ±100 for the full control effect; potency is read from the fitted curve at half-maximal effect.

Activity change, negative = inhibition, inactive:
COc1ccc2c(c1)c(CC(=O)Nc1ccc(C(C)=O)cc1)c(C)n2C(=O)c1ccc(Cl)cc1 -18.8%
CN=C1SC(CC(=O)Nc2cccc(Cl)c2Cl)C(=O)N1C (stereo unspecified) 3.08%
CCN1CCN(c2cc(C)c3cc(NC(=O)c4ccc(OC)c(OC)c4)ccc3n2)CC1 -29.7%
C=CC[C@@H](Cc1ccc(F)cc1)C(=O)OC[C@@H]1CCCN1C(=O)[C@@H](CC=C)CC(=O)N[C@@H](CO)Cc1ccccc1 -12.5%
O=C(NC(=S)Nc1cccc(-c2ccc(CO)o2)c1)c1cccs1 19.5%
COc1cc(/C=N/NC(=O)[C@H](Cc2c[nH]c3ccccc23)NC(=O)OCC(C)C)cc([N+](=O)[O-])c1O 1.8%
Cn1nc(C(=O)NCc2cccc(Cl)c2)c2c1-c1ccccc1S(=O)(=O)C2 -29.1%
CC(=O)c1cccc(NC(=O)N2CCCC2C(=O)NCCC(C)C)c1 (stereo unspecified) 1.21%
Cn1c(O)c(/C=C2\C=NN=C2c2ccccc2)sc1=S 25.2%
O=C(CSc1nnc2ccc(-c3ccncc3)nn12)N1CCCCC1 30.5%
S=c1[nH]nc(-c2ccc(Cl)cc2)n1-c1ccc(Cl)cc1 -7.97%
O=C(O)C(CCCCNS(=O)(=O)c1ccc(F)cc1)NS(=O)(=O)c1ccc(F)cc1 (stereo unspecified) 4%
COc1ccc(S(=O)(=O)N2CCCC(C(=O)NC3CCCCC3)C2)cc1 (stereo unspecified) 0.048%
COc1ccc(NC(=O)CN2C(=O)c3ccccc3Sc3ccc(C(=O)N4CCOCC4)cc32)c(OC)c1 -13.7%
CCc1ccccc1NC(=O)Cn1nnc(C(=O)NCc2cccs2)c1N -26.3%
C[C@]12C(=O)N(c3ccccc3)C(=O)N1[C@H]1c3ccccc3OC[C@@H]1[C@H]2c1ccccc1 -19.3%
CCn1c(/C=C2\C(=O)N(C)c3ccccc32)nc2ccccc2c1=O -18%
CCOC(=O)Nc1ccc(S(=O)(=O)Nn2cnnc2)cc1 67.6%
CC(C)C1(CCNC(=O)c2cccs2)CCOC(C)(C)C1 (stereo unspecified) 42.3%
Cc1[nH]nc(Nc2ccc(Br)cc2)c1[N+](=O)[O-] 25.1%
S=c1[nH]nc(-c2cc(-c3ccccc3)n[nH]2)n1/N=C/C=C/c1ccccc1 43.1%
CC1(C)Cc2nc3sc4c(NCCO)ncnc4c3cc2CS1 41.6%
OCCN1CCN(CC#CCC(c2ccccc2)c2ccccc2)CC1 29.5%
O=C1C=C(c2ccccc2)C[C@H](c2cccs2)[C@H]1n1cnc([N+](=O)[O-])c1 1.88%
Cc1cc(S(=O)(=O)Nc2cccnc2)c(C)s1 4.99%
N#C/C(=C\c1cccc([N+](=O)[O-])c1)c1nnc2n1CCCCC2 -23.2%
Cc1cc(C)c(CN2CCN(C(=O)Cn3ccc(NC(=O)OCc4ccccc4)nc3=O)CC2)c(C)c1 22.5%
CCCCCCN1C[C@H](n2cc(C3CC3)nn2)[C@@H](O)C[C@@H]1c1ccccc1 -25.3%
CCCCCn1c(SCC(=O)c2ccccc2)nc2cc(C(=O)NCC3CCCO3)ccc2c1=O (stereo unspecified) 32.9%
COc1ccc2c(c1)sc1nc(=O)ccn12 -3.38%
CCCCCCSc1ccc([C@@H]2[C@@H]3C(=O)N(CC)C(=O)[C@@H]3[C@]3(C(=O)OC)CCCCN23)cc1OC -15.2%
CCOc1cc(/C=C2/C(=O)ON=C2C)ccc1OCc1ccccc1 -26.1%
Cc1ccc(C)c(N2CCN(C(=O)c3cc(S(=O)(=O)N4CCCC4)cn3C)CC2)c1 -9.86%
CCCc1ccc(OCC(O)CN2CCN(c3ccccc3)CC2)cc1 (stereo unspecified) -18.6%
CN(CC(=O)N1CCN(c2ccccc2F)CC1)S(=O)(=O)c1cnc[nH]1 15.1%
O=C(CCNC(=O)Cn1ccc2ccccc2c1=O)NCCN1CCN(c2cccc(Cl)c2)CC1 -6.5%
C=CC[C@H](CC(=O)OC(C)(C)C)C(=O)OC[C@H]1CCCN1C(=O)[C@H](CC=C)CC(=O)N(CCO)Cc1ccccc1 -16.9%
COc1cc(C(=S)N2CCOCC2)ccc1OC(=O)/C=C/c1ccco1 50.6%
CC(=O)c1ccc(N2CCN(c3ccc4cc(S(=O)(=O)N5CCC(C)CC5)ccc4n3)CC2)cc1 -8.77%
C=CC[C@H](CC(=O)N(CCO)Cc1ccccc1)C(=O)N[C@H](COC(=O)[C@@H](CC=C)CC(=O)OC(C)(C)C)Cc1c[nH]c2ccccc12 -21.5%
Cc1cc(-c2nnc(SCC(=O)Nc3ccccn3)o2)no1 15.8%
O=C1NC(=S)N/C1=C\c1cccnc1 -8.51%
O=C(/C=C/c1ccco1)NC(=S)Nc1ccccc1O -8.21%
CNC(=O)NNC(=O)c1csc(Cc2c(Cl)sc3ccc(Cl)cc23)n1 18.3%
CC(/C=C1\SC(=S)N(C(C(=O)O)C(C)C)C1=O)=C\c1ccccc1 (stereo unspecified) -31.7%

Potency, inactive:
CCc1ccc(NC(=O)C2CCCN2S(=O)(=O)c2ccc3c(c2)n(C)c(=O)c(=O)n3C)cc1 (stereo unspecified)

Potency, active:
CCCc1cc2c(=O)c(-c3nc4ccccc4s3)c(COCC(=O)O)oc2cc1O 79.4 µM
O=C(COC(=O)c1ccc([N+](=O)[O-])s1)NCc1ccc(F)cc1 79.4 µM
Cc1nnc(SCC2=C(C(=O)O)N3C(=O)C(NC(=O)Cn4nc(C(F)F)c(Cl)c4C)C3SC2)s1 (stereo unspecified) 20 µM
CCOC(=O)N(O)c1ccc(C=Cc2ccccc2)cc1 12.6 µM
CC(=O)Nc1ccc2nc3c(=O)n(C)c(=O)n(C)c3nc2c1 35.5 µM
O=C(CCl)N1N=C(c2ccco2)CC1c1ccco1 (stereo unspecified) 10 µM
Cc1cc(NS(=O)(=O)c2ccc(NC(=O)COc3ccccc3[N+](=O)[O-])cc2)no1 20 µM
O=C1Cc2cccc(=O)c(O)c2C(=O)O1 8.91 µM
CCCCC[C@H](O)/C=C/C1=C(CCCCCCC(=O)O)C(=O)CC1 25.1 µM
O=c1/c(=C/c2ccco2)sc2nc(-c3ccccc3Br)nn12 15.8 µM
CCCCn1c(NS(=O)(=O)c2ccccc2)c(S(=O)(=O)c2ccc(C)cc2)c2nc3ccccc3nc21 44.7 µM
Cc1nc2nc(C)n(-c3ccccc3)c2s1 14.1 µM
O=C(CCN1CCN(c2ccccc2)CC1)N/N=C/c1ccc(O)c(O)c1O 22.4 µM
CNc1ccc(Br)cc(C(=O)/C=C/c2ccc3c(c2)OCO3)c1=O 10 µM
COc1ccc(C(=O)CSc2cc(C)[nH]c(=O)n2)cc1 20 µM
